Reference: the RNAGym collection of RNA variant scans (doi:10.1073/pnas.2313332121)
Variants at the background level are over-represented here.

B1: TPR 5TU (parent)
chain: GGAUCUUCUCGAUCUAACAAAAAAGACAAAUCUGCCACAAAGCUUGAGAGCAUCUUCGGAUGCAGAGGCGGCAGCCUUCGGUGGCGCGAUAGCGCCAACGUUCUCAACUAUGACACGCAAAACGCGUGCUCCGUUGAAUGGAGUUUAUCAUG

Variants of: B1
Assay: polymerase ribozyme fitness, log enrichment relative to wild type (log ratio); higher = more active; in vitro selection for triplet polymerase activity
Outline: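 Fitness compares each genotype's enrichment to that of the wild type on a logarithmic scale, averaging replicates with inverse-variance weights. The logarithm is base 2. Enrichment came from Illumina sequencing of input and output libraries after one triplicate round of in vitro selection, which included frozen incubation at −7 °C, of PCR-built, transcribed mutant libraries of each subunit of a heterodimeric triplet polymerase ribozyme. Only genotypes with ≥10 input reads and ≥1 read per output were kept.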

Variant	polymerase ribozyme fitness (log ratio)
GGAUCUUCACGAUCUAACAAAAAAGACAUAUCUGCCACAAAGCUUGAGAGCAUCUUCGGAUGCAGAGGCGGCAGCCUACGGUGGCGCGAUAGCGACAACGUUCUCAGCUAUGACACGCAAAACGCGUGCUCCGUUGAAUGGAGUUUAUCAUG	≤ -4.2
GGAUCUUCACGAUCUAACAAACAAGACAAAUCUGCCUCAAAGCUAGAGAGCAACUUCGGAUGCAGAGGCGGCAGCCUUCGGUGACGCGAUAGCGCCAACGUUCUCAACUAUGACACGCAAAACGCGUGCUCCGUUGAAUGGAGUUUUUCAUG	≤ -4.2
GGAUCUUCACGGUUUAACAAAAUAGACAAAUCUGCCACACAGCUUGAGAGCAUCUUCGGAUGCAGAGGCGGCAGCGUUCGGUGGCCCGACAGCGCCAACGUUCUCAACUAUGACACGAAAAACGCGUGCUGCGUUGAAUGGAGUUUAUCAUG	≤ -4.2
GGAUCUUCACGAUCUUACAAAAAAGACAAAUCUGCCACAAAGCUUGAGAGCAUCUUCGGACGCAGAGGCGGCAGCCUUCGGUGGCGCGAUAGCGCCAACGUUCUCAACUAUGACACGCAAAACGCGUGCUCUGUUGAAUGGAGUUUAUCAUG	≤ -4.2
GGAUCUUUUCGAUCUAACAAAAAAGACAAAUCUGCCACAAAGCUUGAGAGCAUCUUCCGAUGCAGAGGCGGCAGCCUUCGGUGGCGCGAUAGCGCCAACGUUCUCAACUAUGACACGCAAAACGCGUGCUCCGUUGAAUGGAGUUUAUCAUG	-2.7
GGAUCUUCACGAUCUAACAAUAAAGACAAAUGUGCCACAAAACUUGAGAGCAUCAACGGAUGCAGAGGCGGCAGCCUUCGGUGGCGCGAUAGAGCCAACGUUCUCAACUAUGACACGCAAAACGCGCGCUCCGUUGAUUGGAGUUUAUCAUG	≤ -4.2
GGAUCUUCACGGUCUAACAAAAAAGACAAAUCUGCCACAAAGCUUGAGAGCAUCUUCGGAUGCAGAGGCGGCAGCCUUCGGUGGCGUGAUAGCGCCAACUUUCUCAACUAUGACAAGCAAAACGCGUGCUCCGUUGAAUGGAGUUUAUCAUG	≤ -4.2
GGAUCUUUUCGAUCAAACAAAAAAGACAAAACUGCCACAAAGCUUGAGAGCAUCUACGGAUGCAGUGGCGACAGCCUUCGGUGGUGCGAUAGCGCCGACGUUCUCAACUAUGACACGCAAAACGCGUUCUCCGUUGAAUGGAGUUUAUCAUG	≤ -4.2
GGAUCUUUGCGAUCUAAGAAAAAAGACAAAUCGGCCACAAAGCUUGAGAGCAUCAUCGGAUGCAGAGGCGGCAGCCUUCGGUGGCGCGAUAGCGUCAACGUUCUUAACUAUUACACGCAAAACGCGUGCUCUGUUGAAUGGAGUUUUUCAUG	≤ -4.2
GGAUCUUUUCGAUCUAACAAAAAAGACAAAUCUGCCACAAAGCUUGAGAGCAUCAUCGGAUGCAGAGGCGGCAGCCUUCGGUGGCGCGAUAGCGCCAACGUUCUCAACUAUGACACGCAAAACGCGUGCUCCGUUGAAUGGAGUUUAUCAUG	-2.51
GGAUCUUCACGAUCUAACAAAAAAGACAAAUCUGCCACACAGCUUGAGAGCAUCUUCGGAUGCAGAGGCGGCAGCCUUCGGUAGCGCGAUAGUGCCAACGUUCUCAACUAUGACACGCAAAACGCGUGCUCCGUCGAAUGGAGUUUAUCAUG	≤ -4.2
GGAUCUUCACGAUCUAACAAAAAAGACAAAUCUGCCACAACGCAUGAGAGCAUCUUCGGAUGUAGAGGCUGCAGCCUUCGGAGGCGCGAAAGCGUCAACGUUCUCAACUAUGACACGAAAAACGCGUGCUCCGUUGAAUGGAGUUUAUCAUG	≤ -4.2
GGAUCUUCACGAUCUAACAAAGAAGACAAAUCUGCCACAAAGCUUGAAAGCAUCUUCGGAUACAAAGGCGGCAGCGUUCGGUGGCGCGCUAGGGCCAACGUUCUCAAAUAUGACACGCAAAACGCGUGCUCCGUUGAAUGGAGUUUAUCAUG	≤ -4.2
GGAUCUUUUCGAUCUAACAAAAAAGACAAAUCUGCCACAAAGCUUGAGAGCAACUUCGGAUGCAGAGGCGGCAGCCUUCGGUGGCGCGAUAGCGCCAACGUUCUCAACUAUGACACGCAAAACGCGUGCUCCGUUGAAUGGAGUUUAUCAUG	-3.41
GGAUCUUCACGAUCUAACAAAAGAGACAAAUCUGCCACAAAGCUUGAGAGCAUCUUCGGAUGCAGAGCCGGCAGCCUUUGGUGGCGCGAUAGCCCCAACGUUCUGAACUAUGACACGCAAAACGCGUGCUCCGUUGAAUGGAAUUUAUCAUG	≤ -4.2
GGAUCUUCACGAUCUAACAAAAAUGACAAAUCUGCCACAAAGCUUGAGAGCAUCUUCGGAUGCAGAGGCGGCAGCCUUCGGUGGCGCGAUAGCCCCAACGUCCUCAACUAUGACACGCAAAACCCGUGCUCCGUUGAAUGGAGUUUAUCAUG	≤ -4.2
GGAUCUUUUCGAUCUAACAAAAAAGACAAAUCUGCCACAAAGCUUGAGAGCAUCUUCGGAUGCAGAGGCGGCAGCCUUCGGUUGCGCGAUAGCGCCGACGUUCUCAACUAUGACACGCAAAACGCGUGCUCCGUUGAAUGGUGUUUAUCAUG	-4.17
GGAUCUUCACGAUCUAACAAAUAAGACAAAUCUGCCACAAAGCUUGAGAGUAUCUUCGGGUGCAGAGGCGGCAGCCUUCGGUGGCGCGAUAGCGCCAACGUUCUCCACUAUGACACGCAAAACGCGUGCUCCGUCGAAUGGAGUUUAUCGUG	≤ -4.2
GGAUCUUCACGAUCUAACAAAAAAGACAAAUCUGCCACGAAGCUUGAGAGCAUCUUCGGAUGCAGAGUCGGCAGCCUUCGGUGGCGCGAUGGCGCCAACGUUCUCAACUAUGACACGCAAAACGCGUGCUCCGUUGAAUGGAGUUUAUCAUG	≤ -4.2
